# Experimental data as given in PMC4336329 (PLoS ONE, 2015).
# Screen size: about 310,000 compounds; about 14,000 (4.5%) showed an effect of 50% or more. The effect is printed as a negative number. Some of the results follow.
# Target: human ether-à-go-go-related gene (hERG) potassium channel (human, UniProt Q12809)
# Assay: primary screen, population patch clamp on CHO cells stably expressing hERG
# 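Further: peak tail current of the secondary pulse compared with the same well before compound.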
# Sequence of human ether-à-go-go-related gene (hERG) potassium channel (Q12809 whole entry, looked up): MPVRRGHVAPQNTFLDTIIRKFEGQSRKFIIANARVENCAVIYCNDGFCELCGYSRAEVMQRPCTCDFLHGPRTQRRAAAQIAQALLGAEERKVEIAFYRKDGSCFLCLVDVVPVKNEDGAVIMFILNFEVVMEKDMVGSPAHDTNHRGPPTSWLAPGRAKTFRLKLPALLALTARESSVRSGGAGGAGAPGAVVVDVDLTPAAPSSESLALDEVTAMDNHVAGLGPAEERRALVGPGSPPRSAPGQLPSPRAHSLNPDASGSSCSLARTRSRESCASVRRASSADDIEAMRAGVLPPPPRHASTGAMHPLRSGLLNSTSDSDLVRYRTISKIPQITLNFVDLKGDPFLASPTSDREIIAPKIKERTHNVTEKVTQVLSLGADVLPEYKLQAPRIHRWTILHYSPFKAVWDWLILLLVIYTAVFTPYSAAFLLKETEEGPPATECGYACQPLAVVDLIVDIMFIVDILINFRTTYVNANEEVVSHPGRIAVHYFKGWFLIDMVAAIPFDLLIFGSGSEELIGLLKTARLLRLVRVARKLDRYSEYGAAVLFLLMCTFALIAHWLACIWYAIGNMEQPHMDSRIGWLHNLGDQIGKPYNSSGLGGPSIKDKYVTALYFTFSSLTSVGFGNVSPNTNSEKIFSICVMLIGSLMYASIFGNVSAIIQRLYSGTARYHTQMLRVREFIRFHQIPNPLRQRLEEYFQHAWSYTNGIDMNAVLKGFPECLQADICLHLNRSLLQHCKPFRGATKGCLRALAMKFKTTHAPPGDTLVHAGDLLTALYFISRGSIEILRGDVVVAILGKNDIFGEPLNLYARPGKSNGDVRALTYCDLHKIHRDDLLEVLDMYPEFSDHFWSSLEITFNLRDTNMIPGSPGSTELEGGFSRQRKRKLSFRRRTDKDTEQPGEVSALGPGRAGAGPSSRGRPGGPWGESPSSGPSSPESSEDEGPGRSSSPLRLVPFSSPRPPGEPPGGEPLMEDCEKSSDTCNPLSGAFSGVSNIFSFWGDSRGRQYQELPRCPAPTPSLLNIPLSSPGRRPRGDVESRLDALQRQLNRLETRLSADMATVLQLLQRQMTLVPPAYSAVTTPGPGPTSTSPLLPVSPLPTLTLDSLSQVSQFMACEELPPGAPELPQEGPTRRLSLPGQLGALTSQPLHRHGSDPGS
row,SMILES,"hERG current change (%, negative = inhibition) at 10uM [%]"
1,CCOC(=O)c1c(NC(=O)Cc2ccccc2)sc2c1CC(C)(C)NC2(C)C,-52
2,CCCN1CCN(S(=O)(=O)c2ccc(-c3cc(C)no3)s2)CC1,-9.43
3,Cc1nc(NC(=O)c2cccnc2Cl)sc1C,4.14
4,CCOC(=O)CNC(=O)C1c2ccccc2Oc2ccccc21,6.1
5,CN(C)CCCN(C(=O)c1ccc(S(=O)(=O)N(C)C)cc1)c1nc2ccc(F)cc2s1.Cl,-32.9
6,C/C(=C\C(=O)C(F)(F)F)Nc1cc(C)cc(C)c1,9.25
7,COc1ccccc1OCC(=O)Nc1ccc(NC(=O)COc2ccccc2OC)cc1,20.3
8,Cc1c(C(=O)N(CCO)Cc2ccccc2)oc2c(F)cccc12,-7.19
9,Cc1nc2cc(-c3ccccc3)nn2c(C)c1CCC(=O)NC(C)c1ccc2c(c1)OCCO2 (stereo not shown),-50.8
10,CCOC(=O)C1(Cc2cccc(OC)c2)CCN(Cc2cnc(C)s2)CC1,-12.2
11,COc1ccc(-n2c(=S)[nH]c3cc(C(=O)NCc4ccco4)ccc3c2=O)c(OC)c1,11
12,COC(=O)C1CN(C(=O)C(C)Oc2cc(C)ccc2C(C)C)c2ccccc2O1 (stereo not shown),5.45
13,CCOC(=O)c1c(C)nc2cc(C)ccn12,-17.1
14,O=C1CC(c2ccc(F)cc2)CC2=C1C(c1ccc([N+](=O)[O-])o1)Nc1ccccc1N2 (stereo not shown),-47.3
15,COc1c(Br)cc([N+](=O)[O-])c(OC)c1C(=O)NC(=O)Nc1cc(Cl)cc(Cl)c1,10.8
16,Cc1cc(C(=O)N/N=C/c2c(C)nn(-c3ccccc3)c2C)n[nH]1,5.15
17,O=C(NN1C(=O)C2C3C=CC(C4CC34)C2C1=O)c1ccc(Br)cc1 (stereo not shown),22.8
18,O=C(Nc1ccc(Br)cc1)C1C2C=CC3(O2)C1C(=O)N(CCN1CCCCC1)C3C(=O)NC1CCCCC1 (stereo not shown),-59.8
19,CCN(CC)S(=O)(=O)c1ccc(NC(=O)c2cccnc2Cl)c(NC(=O)c2cccnc2Cl)c1,-0.226
20,CC1CCCC(C)N1C(=O)CSCc1ccc(Cl)cc1 (stereo not shown),-16.4
21,NC(=O)c1ccc(SCC(=O)OCC(=O)N2CCN(C(=O)c3ccco3)CC2)c([N+](=O)[O-])c1,23.3
22,COc1ccc(-n2c(SCC(=O)O)nnc2-c2ccc(NC(=O)c3ccccc3)cc2)cc1,4.94

row,SMILES,"hERG current change (%, negative = inhibition) at 10uM [%]"
1,COc1ccccc1/C=C/C=N/N1CCN(Cc2cccc3ccccc23)CC1,1.45
2,O=C(Nc1nc2ccccc2[nH]1)c1ccc(Br)o1,-14.3
3,O=C(c1cccc(OC2CCN(Cc3cccc(OCCO)c3)CC2)c1)N1CCCC1,-2.71
4,CCCCN(C(=O)NC(=O)Nc1cccc(C)c1C)S(C)(=O)=O,1.54
5,COc1ccc(C2C(C(=O)Nc3cccc(OC)c3)c3ccccc3C(=O)N2C)cc1 (stereo not shown),7.68
6,O=C(Nc1ccsc1C(=O)O)c1cccc(C(F)(F)F)c1,30.9
7,O=C(COc1ccc2ccccc2c1)NNC(=O)C(=O)Nc1ccccc1,12.5
8,COc1ccc(S(=O)(=O)N2CCN(c3ccccn3)CC2)cc1[N+](=O)[O-],-23
9,CN(C)S(=O)(=O)c1cccc(-c2nn(-c3ccccc3)cc2/C=C(/C#N)C(=O)NCc2ccco2)c1,-26.9
10,Cc1ccc(S(=O)(=O)N2CCN(C(=O)c3ccc(-n4cncn4)c([N+](=O)[O-])c3)CC2)cc1C,-72.7
11,CNC(=S)N(CCc1c(C)[nH]c2ccc(C)cc12)Cc1cccs1,23.9
12,COc1ccccc1NS(=O)(=O)c1cccc(C(=O)OCC(=O)NC2CC2)c1,14.1
13,COc1ccc(CN2CCC(n3nccc3NC(=O)C3CCCC3)CC2)c(OC)c1,-73.2
14,CSc1ccc(CNC(C)(C)CO)cc1.Cl,-25.6
15,COc1ccccc1NC(=O)C1CCN(S(=O)(=O)c2ccc3c(c2)CC(C)N3C(C)=O)CC1 (stereo not shown),8.71
16,COc1cc(C2C(C(=O)Nc3ccc(F)cc3)=C(C)Nc3nc(CCCO)nn32)cc(OC)c1OC (stereo not shown),4.43
17,COc1cccc(CN(CC(=O)NCc2ccccc2)C(=O)c2csnn2)c1,-1.54
18,O=C(N/N=C\c1ccc(Cl)s1)C1COc2ccccc2O1 (stereo not shown),0.727
19,O=C(CSc1nnc(CCCN2C(=O)c3cccc4cccc(c34)C2=O)n1-c1ccccc1)NCCCO,1.67
20,COc1ccc(CNC(=O)c2nnn(-c3cccc(C(F)(F)F)c3)c2N)cc1,9.01
21,COc1ccc(-n2c(NNC(C)=O)nc3sc4c(c3c2=O)CCCC4)cc1,8.35
22,OC(COc1ccc(OCC(O)CN2CCCCC2)cc1)CN1CCCCC1 (stereo not shown),15.9

row,SMILES,"hERG current change (%, negative = inhibition) at 10uM [%]"
1,Cc1c(C(=O)OCC(=O)Nc2ccc3c(c2)OCO3)cccc1[N+](=O)[O-],-2.15
2,CCC(=O)Nc1ccc(C(=O)Nc2ccc(OC)cc2[N+](=O)[O-])cc1,13.7
3,CC1Cc2ccccc2N1C(=O)CSc1nc2c(c(=O)n(C)c(=O)n2C)n1Cc1ccccc1 (stereo not shown),-33.7
4,CCOCC(=O)Nc1cc(C)on1,36.6
5,NS(=O)(=O)c1ccc(NC(=S)N2CCCC2)cc1,17.2
6,O=C(Cc1ccccc1)N1N=C(c2ccncc2)CC1(O)C(F)(F)F (stereo not shown),12
7,O=C(CCC1CCCN(Cc2ccc3c(c2)OCCO3)C1)NCc1ccc(F)c(F)c1 (stereo not shown),-61.5
8,CN(C)C(=O)c1ccc(-c2cc(C(F)(F)F)nn2C)s1,6.06
9,Cc1cc(-c2nc3cccnc3s2)ccc1NS(=O)(=O)c1ccc2c(c1)OCCO2,2.99
10,Cn1c(C(=O)O)c(CC(=O)NCC2COc3ccccc3O2)c2ccccc21 (stereo not shown),4.56
11,Cc1cc(C(F)(F)F)n2nc(C(=O)O)c(Cl)c2n1,8.44
12,COc1ccc(-c2cc(C(=O)NCC(c3ccccc3)N(C)C)c3ccccc3n2)cc1OC (stereo not shown),-16.4
13,Nc1ccccc1C(=O)/C=C/c1ccc2c(c1)OCO2,14.4
14,CCOC(=O)C1=C(C)N(CCCC(=O)O)C(=O)NC1c1ccc(Cl)cc1 (stereo not shown),26.6
15,NC1=NC(=O)CC(C(=O)NCCc2ccccc2)S1 (stereo not shown),19.3
16,O=C(Nc1nc(-c2ccc(-c3ccccc3)cc2)cs1)C1CCCO1 (stereo not shown),5.08
17,CC(=O)c1c(C)nc(-c2ccccc2)n1O,0.137
18,CCOC(=O)C1=NN(c2ccc(OC)cc2)C2C(=O)N(c3ccccc3OC)C(=O)C12 (stereo not shown),7.25
19,O=C(Cn1nnc(-c2ccc(CN3CCOCC3)cc2)n1)N(c1ccccc1)c1ccccc1,10.6
20,CCN(CC)S(=O)(=O)c1ccc(Cl)c(NC(=O)COc2ccc3c(C)cc(=O)oc3c2)c1,7.69
21,COc1ccc(N2C(=O)NC(NS(=O)(=O)c3ccc(Cl)cc3)(C(F)(F)F)C2=O)cc1 (stereo not shown),16.9
22,COc1cc(/C=N/Nc2nncc3ccccc23)cc(OC)c1OC,-12.5

row,SMILES,"hERG current change (%, negative = inhibition) at 10uM [%]"
1,CCSc1nc2ccccc2[nH]1,-0.969
2,NC(=O)CNC1CC(=O)N(CCc2ccccc2)C1=O (stereo not shown),-1.83
3,O=C(c1ccc2nc3ccccc3c(=O)n2c1)N1CCN(Cc2ccc3c(c2)OCO3)CC1,-60.9
4,O=C(NC(=S)Nc1ccccc1F)C1CCCCC1,24.1
5,CCOc1ccc2nc(NC(=S)N(C)C)sc2c1,13
6,O=C(CSc1nc2ccccc2c(=O)n1-c1ccc(F)cc1)Nc1cc(S(=O)(=O)N2CCOCC2)ccc1Cl,6.71
7,O=C1N=C(C=c2ccc(=Cc3[nH]c(=O)[nH]c3O)cc2)C(=O)N1,17.3
8,O=C(CSc1ccccn1)N1CCN(c2ccccc2)CC1,7.55
9,O=C(CSc1ccc2nnc(-c3ccccn3)n2n1)Nc1ccc(F)cc1,-48.2
10,COC(=O)c1ccccc1NC(=O)C1CC(c2ccc(F)cc2)=NO1 (stereo not shown),-14.6
11,O=C(CCC1CCCN(c2ncccn2)C1)NCc1ccc(F)c(F)c1 (stereo not shown),-40.8
12,CCCCn1c(SCC(=O)Nc2ccc3c(c2)OCCO3)nnc1C(CC)N(C)C (stereo not shown),2.48
13,CC1CCN(C(=O)CCCNC(=O)Cn2cnc3sc4c(c3c2=O)CCCC4)CC1,-34.6
14,CN(Cc1ccccn1)C(=O)c1ccc2nc(Cc3cccc(Cl)c3)oc2c1,-35.8
15,CC(=O)Nc1ccc(SCC(=O)c2ccc(Br)s2)cc1,19.5
16,COc1ccc(NC2=NCC(=O)N2c2ccccc2F)cc1.Cl,12.2
17,CC(=O)Nc1cccc(NC(=S)Nc2ccc(F)c(Cl)c2)c1,-11.6
18,COc1ccc(NC(=S)Nc2ccc(S(N)(=O)=O)cc2)c(C)c1,20.7
19,Cc1nc([N+](=O)[O-])nn1C12CC3CC(CC(Br)(C3)C1)C2,2.5
